Article PMC4336329 (PLoS ONE, 2015)
Among all 310,000 compounds or so, about 14,000 (4.5%) showed an effect of 50% or more. Effects have a minus sign here. The list shows a part of the results.

Molecular target: human ether-à-go-go-related gene (hERG) potassium channel (human, UniProt Q12809)
Assay: primary screen, population patch clamp on CHO cells stably expressing hERG
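Further: peak tail current of the secondary pulse compared with the same well before compound.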

human ether-à-go-go-related gene (hERG) potassium channel, sequence (Q12809 whole entry, looked up): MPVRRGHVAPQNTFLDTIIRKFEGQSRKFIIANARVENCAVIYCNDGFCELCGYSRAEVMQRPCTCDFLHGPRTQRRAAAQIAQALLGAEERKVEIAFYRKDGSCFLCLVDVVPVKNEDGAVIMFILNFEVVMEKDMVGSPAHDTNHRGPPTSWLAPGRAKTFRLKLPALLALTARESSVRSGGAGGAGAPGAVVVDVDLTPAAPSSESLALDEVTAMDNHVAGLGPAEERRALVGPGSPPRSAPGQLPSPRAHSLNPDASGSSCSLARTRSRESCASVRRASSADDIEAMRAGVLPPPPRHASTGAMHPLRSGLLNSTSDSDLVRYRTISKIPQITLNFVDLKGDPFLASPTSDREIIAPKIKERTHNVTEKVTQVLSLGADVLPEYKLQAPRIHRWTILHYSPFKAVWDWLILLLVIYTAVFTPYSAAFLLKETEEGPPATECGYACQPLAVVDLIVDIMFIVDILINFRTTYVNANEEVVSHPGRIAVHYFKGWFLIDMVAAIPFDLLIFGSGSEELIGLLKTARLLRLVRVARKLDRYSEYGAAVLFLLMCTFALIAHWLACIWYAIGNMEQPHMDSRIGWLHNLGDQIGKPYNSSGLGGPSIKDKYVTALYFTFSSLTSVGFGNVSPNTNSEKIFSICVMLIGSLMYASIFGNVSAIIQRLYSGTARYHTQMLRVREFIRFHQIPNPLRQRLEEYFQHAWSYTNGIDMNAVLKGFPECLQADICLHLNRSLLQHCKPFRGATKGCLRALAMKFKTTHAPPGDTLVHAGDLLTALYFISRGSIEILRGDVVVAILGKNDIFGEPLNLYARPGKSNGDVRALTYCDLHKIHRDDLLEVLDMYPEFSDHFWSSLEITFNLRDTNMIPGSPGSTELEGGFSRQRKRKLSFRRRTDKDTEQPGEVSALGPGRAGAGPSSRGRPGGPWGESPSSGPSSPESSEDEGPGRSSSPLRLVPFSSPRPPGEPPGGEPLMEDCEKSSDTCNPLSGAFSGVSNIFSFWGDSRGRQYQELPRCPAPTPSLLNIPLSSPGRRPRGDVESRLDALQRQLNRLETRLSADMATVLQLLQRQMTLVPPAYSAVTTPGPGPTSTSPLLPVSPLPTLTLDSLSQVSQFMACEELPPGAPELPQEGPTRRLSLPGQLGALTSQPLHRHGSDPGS

| SMILES | hERG current change (%, negative = inhibition) at 10uM [%] |
| --- | --- |
| CCOC(=O)C1CCN(c2c(Nc3ccc4c(c3)OCCO4)c(=O)c2=O)CC1 | -7.32 |
| CC1(c2ccc(OCC(N)=O)cc2)NC(=O)NC1=O (stereo not shown) | 14.6 |
| COc1cc(C2C(C#N)=C(N)Oc3cc(C)oc(=O)c32)cc(OC)c1OC (stereo not shown) | 9.69 |
| CN(c1ccc(C(=O)Nc2cccc([N+](=O)[O-])c2)cc1)S(C)(=O)=O | -0.357 |
| CCO[C@H]1OC(C(=O)N2CCCCCCC2)=C[C@@H](c2ccccc2)[C@@H]1CCCO | -8.39 |
| Cc1ccc(CNC(=O)c2cccnc2)cc1 | 16.4 |
| COc1cccc(CNC(=O)c2cccc(Br)c2)c1 | -10.5 |
| Clc1ccc(CN(Cc2ccccc2)C(c2cccs2)c2nnnn2C2CCCC2)cc1 (stereo not shown) | -2.14 |
| CCOc1ccc(/C=C/c2nc(C#N)c(NCCCN(C)C)o2)cc1 | -46.3 |
| Cc1ccc(C(C)NC(=O)c2cccs2)cc1C (stereo not shown) | 8.12 |
| CCOC(=O)C1=C(C)N(CCCC(=O)O)C(=O)NC1c1ccccc1OC(=O)c1cccs1 (stereo not shown) | 10.8 |
| CCN(C(=O)COC(=O)CC1CCCCC1)c1c(N)n(Cc2ccccc2)c(=O)[nH]c1=O | -2.9 |
| c1ccc(CNc2ncnc3scc(-c4cccs4)c23)nc1 | -34.9 |
| CCOc1ccc2nc(N3CCC(C(=O)N4CCN(C5CCCCC5)CC4)CC3)sc2c1 | -46.1 |
| COc1ccc(C(=O)Nc2nc(C)cc(C)n2)cc1 | 11.8 |
| CCNc1nc(Oc2ccc(C(=O)OCC)cc2)nc(SC)n1 | -3.76 |
| COCCn1c(=N)c(S(=O)(=O)c2ccc(Br)cc2)cc2c(=O)n3ccccc3nc21 | -44.3 |
| COc1ccc2cnn(-c3ccc(OC(F)(F)Cl)cc3)c(=O)c2c1OC | 6.28 |
| COc1ccccc1/C=C1\SC(=S)N(CCC(=O)Nc2ccc(C(=O)O)c(O)c2)C1=O | 6.45 |
| COc1ccc(/C=N/NC(=O)c2cccc3ccccc23)c(OC)c1OC | 5.47 |
| O=C(NC1CCCCC1)c1ccc(CS(=O)(=O)Cc2ccccc2F)o1 | -19.6 |
| COc1cccc(/C=C2\N=C(c3c(-c4ccccc4)noc3C)OC2=O)c1 | 15.8 |

| SMILES | hERG current change (%, negative = inhibition) at 10uM [%] |
| --- | --- |
| S=C(NCc1ccco1)Nc1cccc(Cl)c1Cl | -3.13 |
| Cc1ccc(C)c(S(=O)(=O)N2CCCOC2CNC(=O)C(=O)NCCCN2CCOCC2)c1 (stereo not shown) | 0.752 |
| COC(=O)C1=C(c2ccccc2OCc2ccccc2)C[C@@H]2CC[C@H]1N2C(=O)NCc1ccc(Cl)cc1 | 18.9 |
| Cc1ccccc1C(=O)NC(=S)Nc1ccccc1C(F)(F)F | 16.8 |
| COc1cccc(-n2ccnc2SCC(=O)Nc2ccccc2F)c1 | -27 |
| COc1cc(C(=O)O/N=C(\N)Cc2ccc([N+](=O)[O-])cc2)cc(OC)c1OC | -68.9 |
| CN1CCCC(C(=O)c2ccc(Cl)cc2)C1 (stereo not shown) | -23 |
| Cn1cc(S(=O)(=O)NCC2CCCO2)c(=O)n(C)c1=O (stereo not shown) | -9.16 |
| O=C(O)c1cc(O)c2c(c1)C(=O)c1cc(O)cc(O)c1C2=O | 19.9 |
| COc1ccc2nc(C)cc(C(=O)O)c2c1 | 0.7 |
| COc1ccc(-c2noc(CN(C)C(=O)CCN3C(=O)[C@H]4CC=CC[C@H]4C3=O)n2)cc1 | -2 |
| COc1ccc(CCNC(=O)NC2CCCCC2)cc1 | 0.125 |
| O=C(O)c1cccc(S(=O)(=O)Nc2ccc3c(c2)CCC3)c1 | 22.8 |
| S=C(Nc1ccccc1)N1CCN(C2CCCCC2)CC1 | -2.89 |
| COc1ccccc1/C=N/NC(=O)CC(=O)NCc1cccnc1 | 7.63 |
| Cc1ccc(NC(=O)C2CCCN2C(=O)OCc2ccccc2)c(C)c1 (stereo not shown) | 12.7 |
| COc1ccc(CN(C)Cc2nc3cc(OC)c(OC)cc3c(=O)[nH]2)c(OC)c1 | -16.9 |
| O=c1ncn(-c2ccccc2C(F)(F)F)c2ncccc12 | 14.9 |
| COC(=O)C1CCN(C(=O)C2CCC(=O)N(CCCc3ccccc3)C2)CC1 (stereo not shown) | 3.83 |
| CCOC(=O)CC(c1ccc(N)cc1)n1c(C)ccc1C (stereo not shown) | -10.9 |
| COC(=O)c1[nH]c2ccccc2c1NC(=O)CN1CCN(C(=O)c2ccco2)CC1 | -32.8 |
